Laboratory results published in the supplement of paper PMC7125110.
± gives the standard error. Variants at the background level are over-represented here.

B1: glmS ribozyme (parent)
chain: AUAAAAGCGCCAGAACUACAGAAAUGUAGUUGACGAGGAGGAGGUUUAUCGAAUUUUCGGCGGAUGCCUCCAAA

Key:
Details in all cases: with glucosamine-6-phosphate
[1] = variants of: B1; assay: self-cleavage kobs at 40 uM GlcN6P; higher = faster cleavage; RNA array
In short: (§1)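 kobs was derived by fitting per-tile medians to one- or two-exponential decays after normalising signals to baseline and to non-cleaving reference variants. Those signals came from barcoded ribozyme variants transcribed in situ by E. coli RNA polymerase on sequenced MiSeq chips, followed through a hybridised Cy3 probe at 37 °C and imaged over ~14 h. Glucosamine-6-phosphate (40 μM to 10 mM) in HEPES/KCl/Mg(OAc)2 buffer was flowed in. Weighted Michaelis–Menten fits across concentrations then gave kcat and KM.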

[2] = variants of: B1; assay: self-cleavage kobs at 640 uM GlcN6P; higher = faster cleavage; RNA array
In short: as §1

[3] = variants of: B1; assay: self-cleavage kobs at 160 uM GlcN6P; higher = faster cleavage; RNA array
In short: as §1

[4] = variants of: B1; assay: self-cleavage kobs at 2500 uM GlcN6P; higher = faster cleavage; RNA array
In short: as §1

[5] = variants of: B1; assay: self-cleavage kobs at 10000 uM GlcN6P; higher = faster cleavage; RNA array
In short: as §1

## C11U G43C
[1]
  self-cleavage kobs at 40 uM GlcN6P: < 1e-05 s⁻¹
[2]
  self-cleavage kobs at 640 uM GlcN6P: < 1e-05 s⁻¹
[3]
  self-cleavage kobs at 160 uM GlcN6P: < 1e-05 s⁻¹
[4]
  self-cleavage kobs at 2500 uM GlcN6P: < 1e-05 s⁻¹

## A12U A14G
[1]
  self-cleavage kobs at 40 uM GlcN6P: 0.00336 ± 0.00044 s⁻¹
[2]
  self-cleavage kobs at 640 uM GlcN6P: 0.0265 ± 0.0078 s⁻¹
[3]
  self-cleavage kobs at 160 uM GlcN6P: 0.00737 ± 0.0027 s⁻¹

## A12U A14C
[1]
  self-cleavage kobs at 40 uM GlcN6P: 0.000142 ± 1.3e-05 s⁻¹
[2]
  self-cleavage kobs at 640 uM GlcN6P: 0.00117 ± 0.00016 s⁻¹
[3]
  self-cleavage kobs at 160 uM GlcN6P: 0.000429 ± 6.9e-05 s⁻¹
[4]
  self-cleavage kobs at 2500 uM GlcN6P: 0.00261 ± 0.00038 s⁻¹
[5]
  self-cleavage kobs at 10000 uM GlcN6P: 0.00546 ± 0.00066 s⁻¹

## A12U U31A
[1]
  self-cleavage kobs at 40 uM GlcN6P: 0.000416 ± 7.3e-05 s⁻¹
[2]
  self-cleavage kobs at 640 uM GlcN6P: 0.00457 ± 0.0011 s⁻¹
[3]
  self-cleavage kobs at 160 uM GlcN6P: 0.00177 ± 0.00045 s⁻¹

## C11U A42U C58G
[1]
  self-cleavage kobs at 40 uM GlcN6P: < 1e-05 s⁻¹

## A12C G51U
[1]
  self-cleavage kobs at 40 uM GlcN6P: < 1e-05 s⁻¹

## A12U A14U A53G
[1]
  self-cleavage kobs at 40 uM GlcN6P: 0.000135 ± 3.3e-05 s⁻¹

## C11G G13U
[1]
  self-cleavage kobs at 40 uM GlcN6P: < 1e-05 s⁻¹
[2]
  self-cleavage kobs at 640 uM GlcN6P: < 1e-05 s⁻¹
[3]
  self-cleavage kobs at 160 uM GlcN6P: < 1e-05 s⁻¹
[4]
  self-cleavage kobs at 2500 uM GlcN6P: < 1e-05 s⁻¹
[5]
  self-cleavage kobs at 10000 uM GlcN6P: < 1e-05 s⁻¹

## A12C G32U G59C
[1]
  self-cleavage kobs at 40 uM GlcN6P: < 1e-05 s⁻¹
[2]
  self-cleavage kobs at 640 uM GlcN6P: < 1e-05 s⁻¹
[3]
  self-cleavage kobs at 160 uM GlcN6P: < 1e-05 s⁻¹
[4]
  self-cleavage kobs at 2500 uM GlcN6P: < 1e-05 s⁻¹
[5]
  self-cleavage kobs at 10000 uM GlcN6P: < 1e-05 s⁻¹

## A12G A15C A48C
[1]
  self-cleavage kobs at 40 uM GlcN6P: < 1e-05 s⁻¹
[2]
  self-cleavage kobs at 640 uM GlcN6P: < 1e-05 s⁻¹

## A12G U49G
[1]
  self-cleavage kobs at 40 uM GlcN6P: < 1e-05 s⁻¹
[3]
  self-cleavage kobs at 160 uM GlcN6P: < 1e-05 s⁻¹

## A12U U54A U69A
[1]
  self-cleavage kobs at 40 uM GlcN6P: 0.000126 ± 4.4e-05 s⁻¹
[2]
  self-cleavage kobs at 640 uM GlcN6P: 0.000125 ± 2.7e-05 s⁻¹
[3]
  self-cleavage kobs at 160 uM GlcN6P: 0.000159 ± 4.6e-05 s⁻¹
[4]
  self-cleavage kobs at 2500 uM GlcN6P: 0.000458 ± 9.4e-05 s⁻¹
[5]
  self-cleavage kobs at 10000 uM GlcN6P: 0.000322 ± 6.8e-05 s⁻¹

## A12G A33G U57G
[1]
  self-cleavage kobs at 40 uM GlcN6P: < 1e-05 s⁻¹

## C11U G41C U45G C58U
[1]
  self-cleavage kobs at 40 uM GlcN6P: < 1e-05 s⁻¹
[2]
  self-cleavage kobs at 640 uM GlcN6P: < 1e-05 s⁻¹
[4]
  self-cleavage kobs at 2500 uM GlcN6P: < 1e-05 s⁻¹

## C11U C16U C71U
[1]
  self-cleavage kobs at 40 uM GlcN6P: 4.58e-05 ± 1.8e-05 s⁻¹
[2]
  self-cleavage kobs at 640 uM GlcN6P: 0.000215 ± 4.6e-05 s⁻¹
[4]
  self-cleavage kobs at 2500 uM GlcN6P: 0.000443 ± 0.00011 s⁻¹
[5]
  self-cleavage kobs at 10000 uM GlcN6P: 0.000614 ± 0.00012 s⁻¹

## A12G G35C G60A U65G C68G
[1]
  self-cleavage kobs at 40 uM GlcN6P: 0.000127 ± 3.9e-05 s⁻¹
[4]
  self-cleavage kobs at 2500 uM GlcN6P: 0.000384 ± 0.00015 s⁻¹
[5]
  self-cleavage kobs at 10000 uM GlcN6P: 0.000121 ± 4.1e-05 s⁻¹

## A12C G29C
[1]
  self-cleavage kobs at 40 uM GlcN6P: 6.03e-05 ± 6.2e-06 s⁻¹
[2]
  self-cleavage kobs at 640 uM GlcN6P: 0.000508 ± 5.3e-05 s⁻¹
[3]
  self-cleavage kobs at 160 uM GlcN6P: 0.000193 ± 2.7e-05 s⁻¹
[4]
  self-cleavage kobs at 2500 uM GlcN6P: 0.00139 ± 0.00023 s⁻¹
[5]
  self-cleavage kobs at 10000 uM GlcN6P: 0.00271 ± 0.00022 s⁻¹

## C11U G40C U46G
[1]
  self-cleavage kobs at 40 uM GlcN6P: < 1e-05 s⁻¹

## A12C C67A
[1]
  self-cleavage kobs at 40 uM GlcN6P: 0.000204 ± 1.9e-05 s⁻¹
[2]
  self-cleavage kobs at 640 uM GlcN6P: 0.00125 ± 0.0002 s⁻¹
[3]
  self-cleavage kobs at 160 uM GlcN6P: 0.000456 ± 7.2e-05 s⁻¹
[4]
  self-cleavage kobs at 2500 uM GlcN6P: 0.0034 ± 0.00084 s⁻¹
[5]
  self-cleavage kobs at 10000 uM GlcN6P: 0.00467 ± 0.00054 s⁻¹

## C11U A48U U54A
[1]
  self-cleavage kobs at 40 uM GlcN6P: < 1e-05 s⁻¹
[2]
  self-cleavage kobs at 640 uM GlcN6P: < 1e-05 s⁻¹
[3]
  self-cleavage kobs at 160 uM GlcN6P: < 1e-05 s⁻¹
